These results are taken from the RNAGym collection of RNA variant scans (doi:10.7554/elife.90254).

The source gives no read counts; variants with many changes may rest on few reads.

To fix the notation:
B1: OR4K15 (parent)
chain: GUUAACGGUCAUAGGCCAUGGAAACUAGGAGCACCAUUUCGCUGCCAGUGAAGAAAUGAACAAAGAAAAUCUGGGCCAGGCAGGCAUCAAAAGAAAUAGUCUUGCGCUCAACCAGAAAGUCUGUAAUCAUUUUAAGGGUA

Variants of B1 are the subject of the data set. Put plainly: self-cleavage, relative activity (ratio to wild type); higher = more cleavage; in vitro, sequencing; the parent is a self-cleaving ribozyme.
On to GUUAACGGUCAUAGGCCAUGGAAACUAGGAGCACCAUUUCGCUGCCAGUGAAGAAAUGAACGAAGAAAAUCUGGGCCAGGCAGGCAUCAAAAGAAAUAGUCUUGCGCUCAACCAGAGAGUCUGUAAUCAUUUUAAGGGUU [A62G A117G A140U], for which the self-cleavage amounted to 0.98.
The value for GUUAACGGUCAUAGGCCAUGGAAACUAGGAGCACCAUUUCGCUGCCAGUGAAGAAAUGAACGAAGAAAAUCUGGGCCAGGCAGGCAUCAAAAGAAAUAGCCUUGCGCUCGACCAGAAAGUCUGUAACCAUCUUAAGGGUA [A62G U100C A110G U127C U131C] was 0.11; that for GUUAACGGUCAUAGGCCAUGGAAACUAGGAGCACCAUUUCGCUGCCAGUGAAGAAAUGAACGAAGAAAAUCUGGGCCAGGCAGGCACCAAAAGAGAUAGUCUUGCGCUCAACCAGAAAGUCUGUAAUCAUUUUAAGGGUA [A62G U87C A95G] was 2.03; that for GUUAACGGUCAUAGGCCAUGGAAACUAGGAGCACCAUUUCGCUGCCAGUGAAGAAAUGAACGAAGAAAAUCCGGGCCAGGCAGGUAUCAAAAGAAAUAGUCUUGCGCUCAACCAGAAAGUCUGUAAUCAUUUUAAGGGUA [A62G U72C C85U] was 0.03.
Next, GUUAACGGUCAUAGGCCAUGGAAACUAGGAGCACCAUUUCGCUGCCAGUGAAGAAAUGAACGAAGAAAAUCUAGGCCAGGCAGGCAUCAAGAGAAAAAGUCUUGCGCUCAACCAGAAAGUCUGUAAUCAUUUUAAGGGUA [A62G G73A A91G U97A]: 0.06; GUUAACGGUCAUAGGCCAUGGAAACUAGGAGCACCAUUUCGCUGCCAGUGAAGAAAUGAACGAAGAAAAUCUGGGCCAGGCAGGCAUCAAAAGAAAUAGUCUUGCGCUCAACCAGAUAGUCUGUAAUCAUUUUAAGGGUG [A62G A117U A140G]: 0.53.
The value for GUUAACGGUCAUAGGCCAUGGAAACUAGGAGCACCAUUUCGCUGCCAGUGAAGAAAUGAACGAAGAAAAACUGGGCCAGGCAGGCAUCAAAAGAAAUAGUCUUGCGCUCAACCAGAAAGUCCGUAAUCAUUAUAAGGGUA [A62G U70A U122C U132A] was 1.04; that for GUUAACGGUCAUAGGCCAUGGAAACUAGGAGCACCAUUUCGCUGCCAGUGAAGAAAUGAACGAAGAAAAUCUGGGCCAGGCAGGCAUCAAAAGAAAUAGUCUUGCGCUCAGCCAGAGAGUCAGUAAUCAUUUUAAGGGUA [A62G A111G A117G U122A] was 0.
For the variant GUUAACGGUCAUAGGCCAUGGAAACUAGGAGCACCAUUUCGCUGCCAGUGAAGAAAUGAACGAAGAAAAUCUGGGCCAGGCAGGCAACAAAAGAAAUAGUCUUGCGCUCAACCAGAAGGUCUGUAAUCAUUUUAAGGGUA [A62G U87A A118G], the self-cleavage is 0.67.
Next, GUUAACGGUCAUAGGCCAUGGAAACUAGGAGCACCAUUUCGCUGCCAGUGAAGAAAUGAACGAAGAAAAUCAGGGCCAGGCUGGCAUCAAAAGAAAUAGUCUUGCGCUCAACCAGAAAGUCUGUAAUCAUUUUAAGGGUA [A62G U72A A82U]: 0.27.
As for GUUAACGGUCAUAGGCCAUGGAAACUAGGAGCACCAUUUCGCUGCCAGUGAAGAAAUGAACGAACAAAAUCUGGGCCAGGCAGGCAUCAAAAGAAAUAGUCUUGCGCUCAGCCAGAAAGUCUGUAAUCAUUCAAAGGUUA [A62G G65C A111G U132C U133A G138U], the self-cleavage worked out at 0.02.
With GUUAACGGUCAUAGGCCAUGGAAACUAGGAGCACCAUUUCGCUGCCAGUGAAGAAAUGAACGAAGAAAAUCUGGGCCAGGCAAGCAUCAAAAGAAAUAGUCUUGCGCUCAACCAGAUAGUCUGUAAUCAUUUUAAGGGUA [A62G G83A A117U], the self-cleavage is 1.07.
The value for GUUAACGGUCAUAGGCCAUGGAAACUAGGAGCACCAUUUCGCUGCCAGUGAAGAAAUGAACGAAGAAAAUCUGGGCCAGGCAGGCAUCAAAAGAAAUAGUCUUGCGCUCAACCGGAAAGACUGUAAUCAUUUUAAGGGUA [A62G A114G U120A] was 0.2.
The value for GUUAACGGUCAUAGGCCAUGGAAACUAGGAGCACCAUUUCGCUGCCAGUGAAGAAAUGAACGAAGAAAAUCUGGGCCAGGCAGGCAUCAAAAGAAAUAGUCUUGCGCUCAACCAGUAAGUCCGUAAUCAUUUUAAGGGUA [A62G A116U U122C] was 0.34; that for GUUAACGGUCAUAGGCCAUGGAAACUAGGAGCACCAUUUCGCUGCCAGUGAAGAAAUGAACGAAGAAAAUCUGUGCCAGACAGGCGUCAAAAGAAAUAGUCUUGCGCUCAACCAGAAAGUCUGUAAUCAUUUUAAGGGUA [A62G G74U G80A A86G] was 0.19.
Regarding GUUAACGGUCAUAGGCCAUGGAAACUAGGAGCACCAUUUCGCUGCCAGUGAAGAAAUGAACGAAGAAAAUCUGAGCCAGGCAGGCAUCAAAAGAAAUAGUCUUGCGCUCGACCAGAAAGUCUGUAAUCAUUUUAAGGGUA [A62G G74A A110G], the self-cleavage was determined as 0.01.
As to GUUAACGGUCAUAGGCCAUGGAAACUAGGAGCACCAUUUCGCUGCCAGUGAAGAAAUGAACGAAGAAAAUCUAGGCCAGGCAGGCAUCAAAAGAAAUAGUCUUGCGCUCAACCAGAAAGUCUGCAAUCAUUUUAAGGGUA [A62G G73A U124C], the self-cleavage came out at 0.1.
For GUUAACGGUCAUAGGCCAUGGAAACUAGGAGCACCAUUUCGCUGCCAGUGAAGAAAUGAACGAAGAAAAUCUGGGCCAGGCAGGCAUCAAAAGAAAUAGUCUUGCGCUCAUCCAGAAAGUCUGUAACCAUUUUAAGGGUA [A62G A111U U127C], the self-cleavage worked out at 0.04.
Next, GUUAACGGUCAUAGGCCAUGGAAACUAGGAGCACCAUUUCGCUGCCAGUGAAGAAAUGAACGAAGAAAAUCUGGGCCAGGCAGGCACCAAAAGGAAUAGUCUUGCGCUCAACCAGAAAGUCCGUAGUCGUUUUAAGGGUA [A62G U87C A94G U122C A126G A129G]: 0.19; GUUAACGGUCAUAGGCCAUGGAAACUAGGAGCACCAUUUCGCUGCCAGUGAAGAAAUGAACGAAGAAAAUCUGGGCCAGGCAGGCACCAAAAGAAAUAGUCCUGCGCUCAACCAGAAAGUCUGUAAUCAUUUUAAGGGUA [A62G U87C U102C]: 2.1.
Next, GUUAACGGUCAUAGGCCAUGGAAACUAGGAGCACCAUUUCGCUGCCAGUGAAGAAAUGAACGAAGAAAAUCUGGGCCAGGCAGGCAUCAAAAGAAAUAGCCUUGCGUUCAACCAGAAAGUCUGUAAUCAUUUUAAGGGUA [A62G U100C C107U]: 0.02.
